Measured values from paper PMC10017685 (Nature Communications, 2023).
Values after ≈ are worked out from the molar mass of the structure shown. Read-outs that look alike come from different tables or passages of the source.

Key:
[1] = tested on: A. baumannii ATCC BAA 1605; assay type: cell-based, Acinetobacter baumannii; settings: triplicate; for A. baumannii ATCC BAA 1605 MIC: second experimental round, broth microdilution (CLSI), Mueller-Hinton Broth, 0.5 × 10^5 CFU/mL, 1-[…], 18 h at 37 °C; for A. baumannii ATCC BAA 1605 MBC: second round, MIC well and two higher concentrations seeded on agar plates, no visible colonies
Method: (§1) Fresh cultures were used in antimicrobial assay. […] Moreover MBC was evaluated. […] All experiments were conducted in triplicate.

[2] = tested on: Sheep red blood cells; assay: Hemolysis assay (HC50); assay type: cell-based; settings: for HC50 (µM/ml): sheep erythrocytes, recalculated from μg/mL values, estimated as in https://pubmed.ncbi.nlm.nih.gov/29307075/; for HC50: sheep red blood cells 4% (v/v) in PBS, peptides 1-[…], 60 min at 37 °C, hemoglobin release at 590 nm, 1% Triton-X 100 = 100% hemolysis, triplicate, HC50 by ic50.tk
[3] = tested on: S. aureus ATCC 33591; assay type: cell-based, Staphylococcus aureus
Method: as §1

[4] = tested on: E. coli ATCC 43827; assay type: cell-based, Escherichia coli
[5] = tested on: E. coli ATCC 25922; assay type: cell-based, Escherichia coli
Method: as §1

[6] = tested on: P. aeruginosa ATCC 9027; assay type: cell-based, Pseudomonas aeruginosa; settings: triplicate; for P. aeruginosa ATCC 9027 MIC: second experimental round, broth microdilution (CLSI), Mueller-Hinton Broth, 0.5 × 10^5 CFU/mL, 1-[…], 18 h at 37 °C; for P. aeruginosa ATCC 9027 MBC: second round, MIC well and two higher concentrations seeded on agar plates, no visible colonies
Method: as §1

[7] = second experimental round, broth microdilution (CLSI), Mueller-Hinton Broth, 0.5 × 10^5 CFU/mL, 1-[…], 18 h at 37 °C, triplicate
[8] = second round, MIC well and two higher concentrations seeded on agar plates, no visible colonies, triplicate
[9] = Supplementary Data 5F, analogue generation without additional preselection
[10] = first experimental round, broth microdilution (CLSI), Mueller-Hinton Broth, 0.5 × 10^5 CFU/mL, 1-[…], 18 h at 37 °C, triplicate

Structure (SMILES) | A. baumannii ATCC BAA 1605 MIC [1] | A. baumannii ATCC BAA 1605 MBC [1] | HC50 (µM/ml) [2] | HC50 [2] | S. aureus ATCC 33591 MBC [3] | S. aureus ATCC 33591 MIC [3, 7] | S. aureus ATCC 33591 MBC [3, 8] | E. coli ATCC 43827 MBC [4] | E. coli ATCC 43827 MIC [4] | E. coli ATCC 43827 MIC [4, 7] | E. coli ATCC 43827 MBC [4, 8] | E. coli ATCC 25922 MBC [5] | E. coli ATCC 25922 MIC [5] | E. coli ATCC 25922 MIC [5, 7] | E. coli ATCC 25922 MBC [5, 8] | P. aeruginosa ATCC 9027 MIC [6] | P. aeruginosa ATCC 9027 MBC [6] | also measured
CC[C@H](C)[C@H](N)C(=O)NCC(=O)N[C@@H](CCCCN)C(=O)N[C@@H](CCC(=O)O)C(=O)N[C@@H](Cc1ccccc1)C(=O)N[C@@H](CCCCN)C(=O)N[C@@H](CCCNC(=N)N)C(=O)N[C@H](C(=O)N[C@@H](Cc1c[nH]cn1)C(=O)N[C@@H](CCC(=O)O)C(=O)N[C@@H](CCCNC(=N)N)C(=O)N[C@H](C(=O)N[C@@H](CCCCN)C(=O)N[C@@H](CCCNC(=N)N)C(=O)N[C@@H](Cc1ccccc1)C(=O)N[C@@H](CC(C)C)C(=O)N[C@@H](CCCNC(=N)N)C(=O)N[C@@H](CCC(=O)O)C(=O)N[C@@H](CC(C)C)C(=O)N[C@@H](CC(C)C)C(=O)N[C@@H](CCCNC(=N)N)C(=O)N[C@@H](Cc1c[nH]cn1)C(=O)N[C@@H](CC(C)C)C(=O)N[C@@H](CCCNC(=N)N)C(N)=O)[C@@H](C)CC)[C@@H](C)CC [OP-145-TIII4] | 64 µg/mL | 64 µg/mL | >114 µM/ml | >512 µg/mL | 256 µg/mL | 128 µg/mL | 256 µg/mL | 64 µg/mL | 64 µg/mL | 64 µg/mL | 64 µg/mL | 128 µg/mL | 64 µg/mL | 64 µg/mL | 128 µg/mL | 128 µg/mL | 256 µg/mL | –
CC(C)C[C@H](NC(=O)[C@H](CC(C)C)NC(=O)[C@H](CCCCN)NC(=O)[C@H](Cc1ccccc1)NC(=O)[C@H](Cc1ccccc1)NC(=O)[C@H](CCCCN)NC(=O)[C@@H](NC(=O)[C@H](CC(C)C)NC(=O)CNC(=O)[C@H](CC(C)C)NC(=O)[C@@H]1CCCN1C(=O)[C@H](CCCCN)NC(=O)[C@H](CCCCN)NC(=O)[C@H](CC(C)C)NC(=O)[C@H](C)NC(=O)[C@H](Cc1ccccc1)NC(=O)[C@H](Cc1c[nH]c2ccccc12)NC(=O)[C@H](CC(C)C)NC(=O)[C@H](CCCCN)NC(=O)[C@H](CCCCN)NC(=O)CNC(=O)[C@@H](NC(=O)CN)C(C)C)C(C)C)C(N)=O [Hydraganan-1] | – | 4 µg/mL | – | >512 µg/mL | – | – | 8 µg/mL | – | – | – | 16 µg/mL | – | – | – | 8 µg/mL | 32 µg/mL | 64 µg/mL | S. aureus ATCC 33591 MBC ([3]; Supplementary Data 5D/5E): 8 µg/mL; S. aureus ATCC 33591 MIC ([3]; Supplementary Data 5D/5E): 8 µg/mL; E. coli ATCC 43827 MBC ([4]; Supplementary Data 5D/5E): 16 µg/mL; E. coli ATCC 43827 MIC ([4]; Supplementary Data 5D/5E): 16 µg/mL; E. coli ATCC 43827 MIC [4, 9]: 2 µg/mL; MIC E. coli ATCC 43927 [4, 10]: 2 µg/mL (≈ 0.76 µM); E. coli ATCC 25922 MBC ([5]; Supplementary Data 5D/5E): 8 µg/mL; E. coli ATCC 25922 MIC ([5]; Supplementary Data 5D/5E): 8 µg/mL; E. coli ATCC 25922 MIC [5, 9]: 2 µg/mL; MIC E. coli ATCC 25922 [5, 10]: 2 µg/mL (≈ 0.76 µM)
CC[C@H](C)[C@H](NC(=O)[C@H](CCCCN)NC(=O)[C@H](CCCCN)NC(=O)[C@@H](NC(=O)[C@@H](NC(=O)[C@H](CCCCN)NC(=O)[C@@H](NC(=O)[C@H](C)NC(=O)[C@H](CC(C)C)NC(=O)[C@H](Cc1c[nH]cn1)NC(=O)CNC(=O)[C@H](C)NC(=O)[C@H](CC(C)C)NC(=O)[C@H](CC(=O)O)NC(=O)[C@H](CCCCN)NC(=O)[C@H](C)NC(=O)[C@H](C)NC(=O)[C@H](CO)NC(=O)[C@H](CCCCN)NC(=O)[C@H](CC(C)C)NC(=O)[C@H](CC(N)=O)NC(=O)[C@H](CC(=O)O)NC(=O)[C@H](CC(C)C)NC(=O)[C@@H](NC(=O)CN)C(C)C)[C@@H](C)O)C(C)C)[C@@H](C)CC)C(N)=O [Killixin] | 16 µg/mL | 16 µg/mL | 22 µM/ml | 76 µg/mL | – | – | 8 µg/mL | – | – | 32 µg/mL | 32 µg/mL | – | – | 32 µg/mL | 32 µg/mL | 64 µg/mL | 128 µg/mL | –
CC[C@H](C)[C@H](NC(=O)[C@H](CCC(=O)O)NC(=O)[C@H](Cc1c[nH]cn1)NC(=O)[C@H](Cc1ccccc1)NC(=O)[C@H](CCCCN)NC(=O)[C@H](CCCNC(=N)N)NC(=O)[C@H](Cc1c[nH]c2ccccc12)NC(=O)[C@H](C)NC(=O)[C@H](CCCCN)NC(=O)[C@H](CCCCN)NC(=O)[C@@H](NC(=O)[C@@H](NC(=O)[C@H](CCCCN)NC(=O)[C@H](CC(N)=O)NC(=O)[C@H](CC(C)C)NC(=O)[C@H](Cc1c[nH]c2ccccc12)NC(=O)CN)[C@@H](C)CC)[C@@H](C)CC)C(=O)N[C@@H](Cc1ccccc1)C(=O)N[C@@H](CO)C(=O)N[C@@H](CCCCN)C(N)=O [Sophieganan] | – | 2 µg/mL | 49 µM/ml | – | – | – | 4 µg/mL | – | – | 8 µg/mL | 8 µg/mL | – | – | – | 8 µg/mL | 32 µg/mL | 32 µg/mL | –
CC[C@H](C)[C@H](N)C(=O)NCC(=O)N[C@@H](CCCCN)C(=O)N[C@@H](CC(C)C)C(=O)N[C@@H](Cc1ccccc1)C(=O)N[C@@H](CCCCN)C(=O)N[C@@H](CCCNC(=N)N)C(=O)N[C@H](C(=O)N[C@@H](Cc1c[nH]cn1)C(=O)N[C@@H](CC(C)C)C(=O)N[C@@H](CCCNC(=N)N)C(=O)N[C@H](C(=O)N[C@@H](CCCCN)C(=O)N[C@@H](CCCNC(=N)N)C(=O)N[C@@H](Cc1ccccc1)C(=O)N[C@@H](CC(C)C)C(=O)N[C@@H](CCCNC(=N)N)C(=O)N[C@@H](CCC(=O)O)C(=O)N[C@@H](CC(C)C)C(=O)N[C@H](C(=O)N[C@@H](CCCNC(=N)N)C(=O)N[C@@H](CCC(N)=O)C(=O)N[C@@H](CC(C)C)C(=O)N[C@@H](CCCNC(=N)N)C(N)=O)C(C)C)[C@@H](C)CC)[C@@H](C)CC [OP-145-TI3] | 64 µg/mL | 64 µg/mL | 118 µM/ml | 512 µg/mL | >512 µg/mL | >512 µg/mL | >512 µg/mL | 512 µg/mL | 256 µg/mL | 256 µg/mL | 512 µg/mL | 256 µg/mL | 256 µg/mL | 256 µg/mL | 256 µg/mL | >512 µg/mL | >512 µg/mL | S. aureus ATCC 33591 MIC [3]: >512 µg/mL
